# In article PMC4336329 (PLoS ONE, 2015):
# Screen size: about 310,000 compounds; about 14,000 (4.5%) showed an effect of 50% or more. The effect is printed as a negative number. Some of the results follow.
# Target: human ether-à-go-go-related gene (hERG) potassium channel (human, UniProt Q12809)
# Assay: primary screen, population patch clamp on CHO cells stably expressing hERG
# 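Also: peak tail current of the secondary pulse compared with the same well before compound.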
# Chain of human ether-à-go-go-related gene (hERG) potassium channel (Q12809 whole entry, looked up): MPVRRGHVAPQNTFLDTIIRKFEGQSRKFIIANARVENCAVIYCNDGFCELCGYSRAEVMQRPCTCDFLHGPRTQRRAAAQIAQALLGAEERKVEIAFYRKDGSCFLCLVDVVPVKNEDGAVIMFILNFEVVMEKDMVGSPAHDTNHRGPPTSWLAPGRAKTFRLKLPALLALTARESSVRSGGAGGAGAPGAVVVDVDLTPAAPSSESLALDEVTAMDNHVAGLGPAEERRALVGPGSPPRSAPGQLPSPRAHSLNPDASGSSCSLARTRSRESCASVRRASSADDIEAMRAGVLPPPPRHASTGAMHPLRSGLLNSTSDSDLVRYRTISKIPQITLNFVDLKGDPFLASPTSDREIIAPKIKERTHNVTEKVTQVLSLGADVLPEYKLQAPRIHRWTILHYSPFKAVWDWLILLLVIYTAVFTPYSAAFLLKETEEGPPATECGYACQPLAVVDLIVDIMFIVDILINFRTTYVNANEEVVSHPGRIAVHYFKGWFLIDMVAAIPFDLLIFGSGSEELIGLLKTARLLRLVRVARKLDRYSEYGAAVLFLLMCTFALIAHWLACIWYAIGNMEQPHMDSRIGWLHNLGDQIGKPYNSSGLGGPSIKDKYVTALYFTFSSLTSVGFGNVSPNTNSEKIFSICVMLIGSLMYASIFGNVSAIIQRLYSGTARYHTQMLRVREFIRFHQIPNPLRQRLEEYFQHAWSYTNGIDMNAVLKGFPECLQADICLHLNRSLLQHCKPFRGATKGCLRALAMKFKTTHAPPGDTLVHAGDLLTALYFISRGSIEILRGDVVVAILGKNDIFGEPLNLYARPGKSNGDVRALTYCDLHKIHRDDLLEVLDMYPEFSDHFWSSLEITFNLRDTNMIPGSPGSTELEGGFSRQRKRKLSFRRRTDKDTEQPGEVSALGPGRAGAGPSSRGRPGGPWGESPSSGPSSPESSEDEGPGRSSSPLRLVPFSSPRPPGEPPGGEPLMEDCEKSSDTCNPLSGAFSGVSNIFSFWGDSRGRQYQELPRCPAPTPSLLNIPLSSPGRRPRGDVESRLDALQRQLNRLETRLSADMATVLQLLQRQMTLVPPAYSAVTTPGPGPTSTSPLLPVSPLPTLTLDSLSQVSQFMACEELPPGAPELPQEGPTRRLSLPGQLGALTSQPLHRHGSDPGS
row,Compound,"hERG current change (%, negative = inhibition) at 10uM"
1,Cc1ccc(-c2ccc(=O)n(CCC(=O)NCc3ccccn3)n2)cc1,-61%
2,CCOC(=O)CNC(=O)N(CCOC)CC1CCCN(C2Cc3ccccc3C2)C1 (stereo not shown),-28.5%
3,COC(=O)COc1ccc(/C=C2\C(=O)NC(=S)N(c3ccc(C)cc3)C2=O)cc1OC,16%
4,CN(C)S(=O)(=O)c1cc(NC(=O)[C@H](Cc2ccccc2)N2C(=O)c3ccccc3C2=O)ccc1Cl,5.08%
5,CC(C)(CC(=O)O)CC(=O)NCc1c(Cl)cccc1Oc1ccccc1,20.1%
6,O=C(CCCOc1ccc(Cl)cc1Cl)Nc1cccnc1,-12.9%
7,O=C(Nc1ccc(N2CCCCC2)cc1)c1cccnc1Cl,13.4%
8,CC1CCCCN1C(=O)CCS(=O)(=O)Cc1ccccc1 (stereo not shown),-3.41%
9,CCC(=O)OC1(c2ccccc2)CCN(C)CC1C.Cl (stereo not shown),7%
10,Cc1ccccc1C(=O)N1CCC(n2nccc2NC(=O)CCOc2ccccc2)CC1,-6.91%
11,O=C(NC1CCS(=O)(=O)C1)c1cccc(S(=O)(=O)N2CCOCC2)c1 (stereo not shown),-3.62%
12,COCC(=O)NC1CCN(CC(=O)Nc2ccccc2[N+](=O)[O-])CC1,-5.61%
13,CC(C)(CO)NC(=O)CCCOc1ccc(Cl)cc1Cl,-2.49%
14,Cc1onc(-c2c(F)cccc2Cl)c1C(=O)NC(=S)NC1CCS(=O)(=O)C1 (stereo not shown),0.498%
15,CC1Cc2ccccc2N1C(=O)CNc1ccccc1N1CCCCC1 (stereo not shown),2.49%
16,Cc1ccc(-c2nc(NC(=O)CSc3nnnn3-c3ccccc3)ns2)cc1,8.81%
17,O=C(O)c1cccc(-c2ccc(/C=C3/SC(=Nc4ccccc4)N(Cc4cccnc4)C3=O)o2)c1,13.1%
18,CCc1sc(C(=O)N2CCC3(CC2)OCCO3)cc1Br,-7.08%
19,CN1C(=O)c2cccc(NC(=O)CCc3ccccc3)c2C1=O,-19.6%
20,CCOc1nc(C)nc(NC(=O)NS(=O)(=O)c2ccccc2Cl)n1,-11.9%
21,N#Cc1ccsc1NC(=O)COC(=O)c1cc2ccccc2cc1O,-0.704%
22,COc1ccc(NC(=O)NCc2ccc3c(c2)OCO3)c(OC)c1,11.5%

row,Compound,"hERG current change (%, negative = inhibition) at 10uM"
1,Cc1ccc(Cl)c(OCC(=O)Nc2ccccc2N2CCCCC2)c1,5.15%
2,COc1ccc(NC(=O)c2ccc(-n3cnnn3)cc2)c([N+](=O)[O-])c1,4.47%
3,COc1ccc(-c2cc(C)nc(SCc3cccc(C(=O)O)c3)n2)cc1,-19.1%
4,COc1c(C(=O)NCCSC(C)(C)C)ccc2ccccc12,-13.9%
5,FC(F)(F)c1ccccc1N1CC1c1ccncc1 (stereo not shown),13.3%
6,COc1ccc2[nH]c(C(=O)N3CCN(Cc4ccccc4)CC3)cc2c1OC,-9.06%
7,CC1(c2ccc([N+](=O)[O-])cc2)Nc2ccccc2S1 (stereo not shown),-40.8%
8,COc1ccc(CNS(=O)(=O)c2ccc3c(c2)CCN3C(=O)C2CCC2)cc1,12.6%
9,O=C(CN(c1ccccn1)S(=O)(=O)c1ccccc1)N/N=C/c1cccc([N+](=O)[O-])c1,-7.62%
10,O=C(Cc1cccs1)NCc1cccs1,-12%
11,CCOc1ccc(NC(=O)CN(C)C(=O)c2ccc(C)c(S(=O)(=O)N3CCCCC3)c2)cc1OCC,-2.83%
12,Cc1ccc(C)c(NC(=O)CSc2nc3c(oc4ccccc43)c(=O)n2-c2ccccc2)c1,10.7%
13,COc1ccc(OC)c(CNC(=O)C2CCCN(S(=O)(=O)N3CCC(C)CC3)C2)c1 (stereo not shown),-17.4%
14,O=C(/C=C(O)/C=C/c1ccc(O)cc1)/C=C/c1ccc(O)cc1,18.7%
15,N#Cc1ccc(NC(=O)C2CC(c3ccc(F)cc3)=NO2)cc1 (stereo not shown),-14.1%
16,CCN1CCN(C2=C(NS(=O)(=O)c3ccc(NC(C)=O)cc3)C(=O)c3ccccc3C2=O)CC1,7.39%
17,CCOc1cc(C(=O)NCc2ccc3c(c2)OCO3)cc(OCC)c1OCC,18.4%
18,O=C(COC(=O)Cc1c[nH]c2ccccc12)Nc1c(Cl)cccc1C(F)(F)F,-5.24%
19,CCOc1cc(S(=O)(=O)N2CCN(C(=O)c3ccco3)CC2)ccc1F,-39.7%
20,O=C(COC(=O)c1cnc(Cl)c(Cl)c1)NCCC1=CCCCC1,15.1%
21,COc1ccc(N2CCN(C(c3cccs3)C(C)NC(=O)C(=O)N3CCCC3)CC2)cc1 (stereo not shown),-13.9%
